In the supplement of paper PMC8285479:
Counter-ions that a name gives are not always drawn. ± gives the standard deviation of the averaged measurements. Over roughly 1,900 compounds, “normalised cell viability (NPI; 0 = phenylarsine oxide control, 1 = DMSO control)” has its median near 1; the lowest 2% begin near 0.039. The list shows a part of the results.

Test system: NCI-H1944
Experiment: normalised cell viability (NPI; 0 = phenylarsine oxide control, 1 = DMSO control) (fraction of DMSO control); NCI-H1944 is a non-small cell lung cancer line; higher = more viable cells (less compound toxicity)
Settings: 6 days
[1] = glucocorticoid arm: hydrocortisone 2.75 uM co-treatment, compound 1 µM
[2] = glucocorticoid arm: hydrocortisone 2.75 uM co-treatment, compound 5 µM
[3] = glucocorticoid arm: hydrocortisone 2.75 uM pre-treated 2 days and continued, compound 1 µM
[4] = glucocorticoid arm: hydrocortisone 2.75 uM pre-treated 2 days and continued, compound 5 µM
[5] = glucocorticoid arm: vehicle, compound 1 µM
[6] = glucocorticoid arm: vehicle, compound 5 µM
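Further: CTB read-out in 384-well plates, mean of triplicate wells, normalised per plate against 1 µM phenylarsine oxide and 0.1% DMSO, compounds added 24 h after seeding.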

| SMILES | normalised cell viability [1] | normalised cell viability [2] | normalised cell viability [3] | normalised cell viability [4] | normalised cell viability [5] | normalised cell viability [6] |
| --- | --- | --- | --- | --- | --- | --- |
| c1cnc(N2CCN(Cc3ccc4c(c3)OCO4)CC2)nc1 [Piribedil maleate] | 1.001 ± 0.0078 | 0.969 ± 0.013 | 1 ± 0.016 | 0.963 ± 0.01 | 0.985 ± 0.01 | 0.9903 ± 0.0076 |
| C[C@](N)(Cc1ccc(O)c(O)c1)C(=O)O [L-alpha-Methyl DOPA] | 1.002 ± 0.0076 | 0.975 ± 0.032 | 1.006 ± 0.0063 | 1.03 ± 0.086 | 0.9957 ± 0.0045 | 0.997 ± 0.012 |
| CCOC(=O)c1cnc2ccc(-c3cncc(NS(=O)(=O)c4ccccc4)c3)cn12 | 0.9357 ± 0.0074 | 0.934 ± 0.038 | 0.928 ± 0.036 | 0.945 ± 0.02 | 0.9947 ± 0.005 | 0.987 ± 0.012 |
| O=C(O)CNC(=O)C(CS)Cc1ccccc1 (racemic) [DL-Thiorphan] | 1.007 ± 0.0058 | 1.02 ± 0.011 | 0.894 ± 0.2 | 1.017 ± 0.0058 | 0.998 ± 0.002 | 0.996 ± 0.0069 |
| COc1cc2c(cc1OC)CC(=O)N(CCCN(C)C[C@H]1Cc3cc(OC)c(OC)cc31)CC2 [Ivabradine HCl] | 1.03 ± 0.015 | 1.01 ± 0.024 | 1.01 ± 0.011 | 0.999 ± 0.02 | 0.9993 ± 0.0011 | 0.998 ± 0.0035 |
| O=C(CCCN1C(=O)c2cccc3cccc(c23)C1=O)NO [Nullscript] | 0.981 ± 0.011 | 0.961 ± 0.029 | 1 ± 0.012 | 0.987 ± 0.018 | 1 ± 0.0082 | 1.01 ± 0.014 |
| Cc1c(C(=O)NN2CCCCC2)nn(-c2ccc(Cl)cc2Cl)c1-c1ccc(Cl)cc1 [Rimonabant] | 1.013 ± 0.0058 | 1.03 ± 0.015 | 1.02 ± 0.017 | 1.02 ± 0.022 | 1.003 ± 0.0058 | 0.9933 ± 0.0035 |
| O=C(O)C(=O)O.[NH-][C@@H]1CCCC[C@H]1[NH-].[Pt+2] [Oxaliplatin] | 1.023 ± 0.0058 | 0.863 ± 0.0095 | 1.013 ± 0.0058 | 0.9563 ± 0.0038 | 1.003 ± 0.0058 | 0.585 ± 0.04 |
| Cc1ccc(NC(=O)c2ccc(CN3CCN(C)CC3)cc2)cc1Nc1nccc(-c2cccnc2)n1 [Imatinib (Gleevec)] | 1.05 ± 0.017 | 1.14 ± 0.015 | 1.037 ± 0.0058 | 1.1 ± 0.01 | 1.01 ± 0.015 | 1.033 ± 0.0058 |
| Cc1ccc(NC(=O)c2ccc(CN3CCN(C)CC3)cc2)cc1Nc1nccc(-c2cccnc2)n1 | 1.043 ± 0.0058 | 1.1 ± 0.032 | 1.04 ± 0.011 | 1.05 ± 0.01 | 0.9957 ± 0.004 | 1 ± 0.014 |
| Cc1ccc(NC(=O)c2ccc(CN3CCN(C)CC3)cc2)cc1Nc1nccc(-c2cccnc2)n1 [Imatinib Mesylate] | 1.05 ± 0.015 | 1.14 ± 0.021 | 1.05 ± 0.015 | 1.1 ± 0.032 | 1.01 ± 0.01 | 1.03 ± 0.011 |
| Oc1cc2c(c(Cl)c1O)CCNCC2c1ccccc1 (racemic) [(±)-6-Chloro-PB hydrobromide] | 1.007 ± 0.0058 | 1.04 ± 0.023 | 1.03 ± 0.015 | 1.05 ± 0.01 | 1.02 ± 0.01 | 1.02 |
| Cc1nn(-c2ccccc2)c(C)c1C=NN1CCN(Cc2ccccc2)CC1 | 1.01 ± 0.01 | 0.991 ± 0.05 | 1.02 ± 0.011 | 0.9927 ± 0.0078 | 0.9987 ± 0.0023 | 0.996 ± 0.013 |
| CC(C)C(=O)Oc1ccc(CO)cc1[C@H](CCN(C(C)C)C(C)C)c1ccccc1 [Fesoterodine Fumarate] | 1.002 ± 0.0076 | 0.966 ± 0.019 | 1 ± 0.025 | 0.984 ± 0.04 | 1.001 ± 0.009 | 1 ± 0.016 |
| Fc1ccc(CN(C2=NCCN2)c2c(Cl)cccc2Cl)cc1 [IMID-4F hydrochloride] | 1.007 ± 0.0058 | 0.435 ± 0.024 | 1.013 ± 0.0058 | 1.05 ± 0.011 | 1.005 ± 0.0081 | 0.16 ± 0.0067 |
| CCc1cc2c(cc1N1CCC(N3CCOCC3)CC1)C(C)(C)c1[nH]c3cc(C#N)ccc3c1C2=O | 0.979 ± 0.021 | 0.897 ± 0.011 | 0.9593 ± 0.0074 | 0.935 ± 0.013 | 0.9967 ± 0.0058 | 0.985 ± 0.0076 |
| COc1ccc(NS(=O)(=O)c2sc3ccc(Cl)cc3c2C)cc1N1CCNCC1 | 1.02 ± 0.021 | 1.03 | 1.023 ± 0.0058 | 1.04 ± 0.026 | 1.02 | 1 |
| Cn1c(=O)[nH]c2ncn(C)c2c1=O [1,7-Dimethylxanthine] | 1.007 ± 0.0058 | 1.01 ± 0.015 | 1.01 ± 0.011 | 1 ± 0.018 | 1.002 ± 0.0068 | 0.9987 ± 0.0015 |
| C/C(=C\c1csc(C)n1)[C@@H]1C[C@@H]2O[C@]2(C)CCC[C@H](C)[C@H](O)[C@@H](C)C(=O)C(C)(C)[C@@H](O)CC(=O)N1 [Ixabepilone] | 0.132 ± 0.012 | 0.146 ± 0.018 | 0.484 ± 0.023 | 0.477 ± 0.05 | 0.0322 ± 0.0044 | 0.032 ± 0.004 |
| C1COC(NC(C2CC2)C2CC2)=N1 [Rilmenidine hemifumarate] | 1.007 ± 0.0058 | 1.013 ± 0.0058 | 1.02 ± 0.032 | 1 ± 0.015 | 0.999 ± 0.001 | 0.996 ± 0.016 |
| OC[C@H]1O[C@@H](n2cnc3c(NC4CCCC4)ncnc32)[C@H](O)[C@@H]1O [N6-Cyclopentyladenosine] | 1.01 ± 0.01 | 0.998 ± 0.014 | 1.001 ± 0.0081 | 1.005 ± 0.0071 | 1.002 ± 0.0068 | 1.007 ± 0.0058 |
| C[N+](C)(C)CC=O [Betaine aldehyde chloride] | 0.9877 ± 0.0021 | 0.993 ± 0.012 | 0.9913 ± 0.0081 | 0.993 ± 0.0085 | 0.9647 ± 0.0015 | 0.9803 ± 0.0015 |
| CCCn1c(=O)[nH]c(=O)c2[nH]cnc21 [3-n-Propylxanthine] | 1.006 ± 0.0075 | 1.01 ± 0.013 | 1.007 ± 0.0058 | 1.04 ± 0.04 | 0.9923 ± 0.0064 | 1 ± 0.018 |
| CC(C)NCC(O)COc1ccc(CCOCC2CC2)cc1 (stereo not given) [Betaxolol hydrochloride] | 1 ± 0.0087 | 1 ± 0.018 | 0.9883 ± 0.0049 | 1.02 ± 0.021 | 0.989 ± 0.011 | 1.01 ± 0.013 |
| CC(C)NCC(O)COc1ccc(CCOCC2CC2)cc1 (stereo not given) [Betaxolol HCl] | 1.01 ± 0.018 | 0.991 ± 0.0072 | 1.027 ± 0.0058 | 0.995 ± 0.036 | 1.003 ± 0.0058 | 1 ± 0.022 |
